Assay results: the supplement of paper PMC12632987
Over roughly 1,800 sequences, “median log2 fold change of GCK-ALFA target abundance (FLAG IP / Myc IP barcode read proportion)” has its median near 0.14; the lowest 2% begin near -0.84. Some of the results follow.

T1: TRAF2, Q12933
T1 chain: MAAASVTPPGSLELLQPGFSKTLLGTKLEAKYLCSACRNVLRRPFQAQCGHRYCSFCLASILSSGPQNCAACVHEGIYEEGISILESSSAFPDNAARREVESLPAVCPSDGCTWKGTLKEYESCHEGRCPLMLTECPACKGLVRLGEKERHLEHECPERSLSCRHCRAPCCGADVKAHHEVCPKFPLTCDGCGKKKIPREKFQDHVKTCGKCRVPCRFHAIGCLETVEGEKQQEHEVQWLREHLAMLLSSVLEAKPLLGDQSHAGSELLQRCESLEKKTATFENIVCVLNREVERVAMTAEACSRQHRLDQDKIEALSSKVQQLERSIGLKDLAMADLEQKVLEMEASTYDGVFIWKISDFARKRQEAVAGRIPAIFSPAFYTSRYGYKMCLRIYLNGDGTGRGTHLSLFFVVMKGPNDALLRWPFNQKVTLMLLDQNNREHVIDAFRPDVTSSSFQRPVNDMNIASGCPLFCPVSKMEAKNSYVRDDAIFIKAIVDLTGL

B1: traf2_out_16_171_1437 (protein)
chain: AQAEREAALKAEIDAWAAELKARADTAVEVAPLISKETGLTKEQIAAGFRSTMTDRIAAARDYFTAKAKDLSEEVKKYIDERLADVRAHLDAAVAAILAQ
B2: traf2_out_16_104_1406 (protein)
chain: AAATQAAFDAIIAELNKIAEELGKIANKIYKKMETASPELKEKLTDALVDASELRRQALEAAVAAAQARATGGDLAAAQATLAELKKKAEEVKKKAEELF
B3: traf2_out_13_95_1075 (protein)
chain: SKEANEKIKEIADEMLEKSKEILKELAEKVKDDPEMKAKVEEALYLAETQGINAAIHLLKELAKENEKYKELLEKTIEELEKIKREAGREVAKILKEEEE
B4: traf2_out_11_155_678 (protein)
chain: ERRRELNNELVDEVTAIADEAEAELRAIAAEAAAAHPEAAAAIAAVLAASRPFSHRSLGGRLAALFRELGLEDEAARVEALLERAQKRANEIVKRIEAEL
B5: traf2_out_17_162_1640 (protein)
chain: SPVEEFKERVEKELKELEKRVEELEEKSKKIDEYSKEELSDLIVEASEVKRRARELKQEVLAAKDLIPEEERARILKRLEEIIERAQRIAQKFYDKYLSL
B6: traf2_out_16_104_1395 (protein)
chain: SSEKEAEFKKIAEELLEIAERAGRIANRAYKLYEKADPERKTELSDLMVEASELRREALLAAQEVKEWLETGGDLEEAKAKLEELKKRLKEIEERLKELE
B7: traf2_out_6_156_2417 (protein)
chain: MVEEIFKEALKKIKEEIKKLSEASEEKKIKYISRIAGTAYRALQQLRDAGASLEEIKEFAERLLEEIEKEAKKAGLDEKTRNLLLSSLQAVFDVAIAEAE
B8: traf2_out_14_17_1297 (protein)
chain: SIIEKLKEILEKAKELAKKLPELKLELTQLARKAESALVLAEMYEEDPSYKPELLQALKNLIKLTKEVAEKVKPISEEAVKKLEEIAKTAEEILKEVEKE
B9: traf2_out_14_149_1254 (protein)
chain: SATEEKKKALEEARKLMEEIIKILEKALKAGSTDVDKEKIRKLLEEAREILKKQGFVLGHLLAMEEMLETTKEWTLEDIKAFLELAKRAAESLKVLAEML
B10: traf2_out_20_3_2155 (protein)
chain: SELEEEAEKAREEAIKLLEEAAKLADPETAKRLEELRERVERSRELSPEDRLVELSEVRREVLELAEEAAAAGDEELAAVLEEAAEALNRAMNLVYQIIL
B11: traf2_out_20_38_2049 (protein)
chain: SALEEDAARLEELAPKFFEATDEVDERLEKLKKEGKSVAEAAIEILKEKKKEAKTEEAKKELDEGIKEVEKLKKEGASDEVIRRVTIRAVNTALWIELNA
B12: traf2_out_16_104_1373 (protein)
chain: SEELERRLEELRRELEEVESEYNRVAQQALEQLPSLSEEERQKVLDLLADASEARRRAKEALERAERLLREGGPEEEIERELEEAERYLEELRALIEQLK
B13: traf2_out_1_158_908 (protein)
chain: STDVSTLHAVATSIAEVYAEEAKERGLEKAAELLKKLKKEIEKLYEANKDASLEEMAAKVLELIKKFEEESKSFDPETREFVEIAFRQIRSGILQVVKLA
B14: traf2_out_11_79_937 (protein)
chain: EEKKKKLLELLKEALKLLEELLKKMKEGTISKEEREKMLDEIERLLQKAAMLALELGLSDVLVKISEAKRHVRLAYSGDLKSIEEAIKEVKEAIKLLEKA
B15: traf2_out_17_35_1754 (protein)
chain: MSETEKEREIANEIADKILEESDKKNEELEKVYEETKDKKAVVEKTKEILKEYGIEEEEIKLLEEHYKTGNDEEILEFSKSLVRRAVGEKYGKEYAEKLK
B16: traf2_out_20_3_2106 (protein)
chain: EELEEELEEELEEALALLEEAAALADPETAARLKALAARVEASRSLPYTDRLVALSEVRREVLLLAQEARAAGREELAAVLEEAAEELNEAMNLVMKIIE
B17: traf2_out_6_156_2401 (protein)
chain: MKEEILKETKAEIEKLIKELSKASEEKKISYINKIAGTVYRGLQRLREAGASVEEIAAFVKEIIEFTEKKLDEEGIEEDIKNLILSSLNAVGDVALASAA
B18: traf2_out_6_169_2500 (protein)
chain: MEKEELLKEAERHRKRAEELLKLAETIYKQAKENKDKSKIPIYLEAMETMLNALKRHYELAIEALKKLGKEEEAKEAEKKKKEHIEKMEKMIEEIKKMLK
B19: traf2_out_14_149_1247 (protein)
chain: SHMAETLRAAAELNERIAKALEEILKLLEAGKLEEAKAALEAAIKEAEALGEELGVTTSGIFEMEHILKLLKEDPEEAKKAVKEAAERARDAAEVLRSIA

Target: T1, TRAF2, Q12933
Test: median log2 fold change of GCK-ALFA target abundance (FLAG IP / Myc IP barcode read proportion) (log2 ratio); each designed protein is fused to an ALFA-tag nanobody in HEK293 cells to bring the named protein to FLAG-tagged glucokinase (GCK); Myc marks an untargeted standard; higher = target protein stabilised (more abundant)
Settings: target protein: 3xFLAG-MCP-GCK-ALFA reporter; HEK293 landing pad (RPLP)
Summary of the method: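 Sequencing of reverse-transcribed, amplified circular RNA barcodes from anti-FLAG and anti-Myc immunoprecipitates provided the readout for an ALFA-nanobody-fused binder library recombined into HEK293 landing-pad cells. Those cells were induced with 2 μg mL^−1 doxycycline, transfected with a plasmid expressing a FLAG-tagged target and a Myc-tagged standard, and lysed after 48 h. Target abundance is the per-binder median log2 ratio of FLAG to Myc barcode read proportions. Only barcodes at a proportion of ≥10^−7 in both replicates and binders with ≥3 barcodes per replicate were kept, with a 10^−6 pseudocount added before the two replicates were pooled.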

Binder | median log2 fold change
B1 | -0.0368
B2 | 0.196
B3 | 0.162
B4 | 0.0174
B5 | 0.0147
B6 | 0.47
B7 | 0.0576
B8 | 0.298
B9 | 0.199
B10 | 0.22
B11 | 0.106
B12 | 0.28
B13 | 0.0558
B14 | 0.000129
B15 | 0.269
B16 | 0.0314
B17 | -0.198
B18 | -0.186
B19 | -0.194
